These are yes or no findings as the source states them, for the method shown. Binding seen in cells or lysates may run through a third protein. Some binding calls cover weakened binding; strength is not graded here. For some of these results: Sequences can lack the tags named with a protein.
Tests used:
[1] = biological target: Ror2 (human (endogenous in HEK293T)) (UniProt Q01974); assay: co-IP; Ror2–p120-catenin co-immunoprecipitation from cells treated with the tyrosine kinase inhibitor herbimycin (Fig. S7)
[2] = biological target: T1, GST–cytoRor2 (cytoplasmic domain of Ror2, amino acids 426–944) (mouse (from the plasmid name pcDNA-mRor2-HA)) (UniProt Q9Z138); assay: pull-down; 10 pmol GST–cyto-Ror2 as bait with 700 μg total cell extracts from control, p120-catenin or CK1ε HEK293T CRISPR cells; Western blot; only the target purified
T1 sequence: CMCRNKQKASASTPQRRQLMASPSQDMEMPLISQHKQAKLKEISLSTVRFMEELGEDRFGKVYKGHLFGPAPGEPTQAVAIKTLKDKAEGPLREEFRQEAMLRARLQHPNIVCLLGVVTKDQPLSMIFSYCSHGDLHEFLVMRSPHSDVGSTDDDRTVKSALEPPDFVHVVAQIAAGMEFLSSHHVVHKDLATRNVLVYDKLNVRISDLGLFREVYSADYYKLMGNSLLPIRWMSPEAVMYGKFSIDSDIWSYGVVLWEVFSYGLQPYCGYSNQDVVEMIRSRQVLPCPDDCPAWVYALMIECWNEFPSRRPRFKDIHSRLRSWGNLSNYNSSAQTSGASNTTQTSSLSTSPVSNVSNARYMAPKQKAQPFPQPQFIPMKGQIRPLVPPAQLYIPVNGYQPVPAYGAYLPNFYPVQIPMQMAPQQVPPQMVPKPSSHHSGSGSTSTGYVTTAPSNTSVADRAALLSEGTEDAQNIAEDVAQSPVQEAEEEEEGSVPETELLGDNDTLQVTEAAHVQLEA

[3] = biological target: Ror2 (human (endogenous in HEK293T)) (UniProt Q01974); assay: condition: only cells treated with herbimycin (20 ng·mL^−1); co-IP; Ror2–p120-catenin co-immunoprecipitation from cells treated with the tyrosine kinase inhibitor herbimycin (Fig. S7)
[4] = biological target: Ror2 (human (endogenous in HEK293T)) (UniProt Q01974); assay: co-IP; Ror2 immunoprecipitated from extracts of control or p120-catenin CRISPR HEK293T cells treated with control or Wnt5a-conditioned medium for 5 min; associated proteins by Western blot

B1: p120-catenin (protein, UniProt O60716 1-968)
chain: MDDSEVESTASILASVKEQEAQFEKLTRALEEERRHVSAQLERVRVSPQDANPLMANGTLTRRHQNGRFVGDADLERQKFSDLKLNGPQDHSHLLYSTIPRMQEPGQIVETYTEEDPEGAMSVVSVETSDDGTTRRTETTVKKVVKTVTTRTVQPVAMGPDGLPVDASSVSNNYIQTLGRDFRKNGNGGPGPYVGQAGTATLPRNFHYPPDGYSRHYEDGYPGGSDNYGSLSRVTRIEERYRPSMEGYRAPSRQDVYGPQPQVRVGGSSVDLHRFHPEPYGLEDDQRSMGYDDLDYGMMSDYGTARRTGTPSDPRRRLRSYEDMIGEEVPSDQYYWAPLAQHERGSLASLDSLRKGGPPPPNWRQPELPEVIAMLGFRLDAVKSNAAAYLQHLCYRNDKVKTDVRKLKGIPVLVGLLDHPKKEVHLGACGALKNISFGRDQDNKIAIKNCDGVPALVRLLRKARDMDLTEVITGTLWNLSSHDSIKMEIVDHALHALTDEVIIPHSGWEREPNEDCKPRHIEWESVLTNTAGCLRNVSSERSEARRKLRECDGLVDALIFIVQAEIGQKDSDSKLVENCVCLLRNLSYQVHREIPQAERYQEAAPNVANNTGPHAASCFGAKKGKDEWFSRGKKPIEDPANDTVDFPKRTSPARGYELLFQPEVVRIYISLLKESKTPAILEASAGAIQNLCAGRWTYGRYIRSALRQEKALSAIADLLTNEHERVVKAASGALRNLAVDARNKELIGKHAIPNLVKNLPGGQQNSSWNFSEDTVISILNTINEVIAENLEAAKKLRETQGIEKLVLINKSGNRSEKEVRAAALVLQTIWGYKELRKPLEKEGWKKSDFQVNLNNASRSQSSHSYDDSTLPLIDRNQKSDKKPDREEIQMSNMGSNTKSLDNNYSTPNERGDHNRTLDRSGDLGDMEPLKGTTPLMQDEGQESLEEELDVLVLDDEGGQVSYPSMQKI
binding [1]: binds
binding [2]: binds
binding [3]: no binding
binding [4]: binds
